The other results are listed elsewhere or left out.

One experiment relates to HSkMC. Kind of experiment: cytotoxicity call (relative viability < 0.9). The conditions noted are these: 10 µM.
For a further experiment, the system named is S. aureus RN4220. Kind of experiment: growth inhibition call (relative growth <= 0.2). The conditions noted are these: 50 µM.

In the case of `Cc1ccc(-c2csc(-c3ccc(CN)cc3)n2)cc1`, the cytotoxicity call with HSkMC is “active”. Also, in the experiment with S. aureus RN4220, the growth inhibition call was “inactive”.
For `CNC[C@@H]1Oc2ccc(NC(=O)Cn3cnnn3)cc2C(=O)N([C@@H](C)CO)C[C@H]1C`, the cytotoxicity call in the experiment with HSkMC is “inactive”. The growth inhibition call in the experiment on S. aureus RN4220 was “inactive”.
`CNC(=O)C(=O)NCCc1c[nH]c2ccccc12`: the cytotoxicity call in the experiment with HSkMC was “inactive”. Besides, in the experiment on S. aureus RN4220, the growth inhibition call was “inactive”.
With `C[C@@H]1CN([C@@H](C)CO)C(=O)c2cc(NC(=O)Cn3cnnn3)ccc2O[C@H]1CN(C)C(=O)Nc1cccc2ccccc12`, in the experiment with HSkMC, the cytotoxicity call is “inactive”. For the same compound, the growth inhibition call in the experiment with S. aureus RN4220 was “inactive”.
In the case of `COCC#Cc1ccc2c(c1)O[C@H](CN(C)C(=O)Nc1ccc(OC)cc1)[C@H](C)CN([C@H](C)CO)S2(=O)=O`, in the experiment on HSkMC, the cytotoxicity call was “inactive”. The growth inhibition call with S. aureus RN4220 was “inactive”.
Turning to `CN(C)CCCNC(=O)C[C@@H]1CC[C@@H]2[C@H](COC[C@H](O)CN2S(=O)(=O)c2ccccc2)O1`, the cytotoxicity call in the experiment on HSkMC is “inactive”. Moreover, in the experiment on S. aureus RN4220, the growth inhibition call was “inactive”.
`NCC[C@H]1CC[C@@H](NC(=O)C2CCCC2)[C@@H](CO)O1`: the cytotoxicity call in the experiment with HSkMC was “inactive”. In the experiment with S. aureus RN4220, the growth inhibition call was “inactive”.
Take `COc1ccc([C@@H]([C@H](Cc2ccccc2)OC(C)=O)N2C[C@H](CC(=O)N(C)C)[C@@H]3[C@H]([C@@H]2Cc2ccccc2)N(C)O[C@H]3c2ccccc2)cc1`: the cytotoxicity call with HSkMC is “inactive”. The growth inhibition call in the experiment with S. aureus RN4220 was “inactive”.
Turning to `C[C@@H]1CN([C@H](C)CO)C(=O)Cc2cc(NC(=O)NC3CCCCC3)ccc2O[C@H]1CN(C)Cc1ccc(C(F)(F)F)cc1`, in the experiment with HSkMC, the cytotoxicity call is “inactive”. The growth inhibition call in the experiment with S. aureus RN4220 is “inactive”.
Consider `C[C@H]1CN([C@@H](C)CO)C(=O)c2cccc(NS(=O)(=O)c3ccc(F)cc3)c2O[C@@H]1CN(C)Cc1ccc(-c2ccccc2)cc1`, for which the cytotoxicity call in the experiment with HSkMC is “inactive”. Besides, the growth inhibition call in the experiment on S. aureus RN4220 is “inactive”.
Turning to `C[C@H](CO)N1C[C@H](C)[C@H](CN(C)Cc2ccncc2)Oc2c(NS(=O)(=O)c3cccs3)cccc2C1=O`, the cytotoxicity call in the experiment with HSkMC is “inactive”. The growth inhibition call in the experiment with S. aureus RN4220 is “inactive”.
On to `C[C@H]1CN([C@@H](C)CO)S(=O)(=O)c2ccc(C3=CCCCC3)cc2O[C@@H]1CN(C)S(=O)(=O)c1cn(C)cn1`, for which, in the experiment on HSkMC, the cytotoxicity call is “inactive”. The growth inhibition call with S. aureus RN4220 was “inactive”.
Turning to `C[C@H](CO)N1C[C@H](C)[C@H](CN(C)S(=O)(=O)c2cn(C)cn2)Oc2ncc(C#Cc3ccccc3)cc2C1=O`, in the experiment with HSkMC, the cytotoxicity call is “inactive”. For the same compound, in the experiment on S. aureus RN4220, the growth inhibition call was “inactive”.
Turning to `C[C@@H]1CCCCO[C@H](CN(C)C(=O)Nc2cccc3ccccc23)[C@H](C)CN([C@@H](C)CO)C(=O)c2cc(NC(=O)Nc3ccc4c(c3)OCO4)ccc2O1`, the cytotoxicity call in the experiment with HSkMC was “inactive”. For the same compound, the growth inhibition call with S. aureus RN4220 was “inactive”.
As to `C[C@@H]1CCCCO[C@@H](CN(C)C(=O)Nc2cccc3ccccc23)[C@H](C)CN([C@H](C)CO)C(=O)c2cc(NC(=O)CCC(F)(F)F)ccc2O1`, in the experiment on HSkMC, the cytotoxicity call was “inactive”. Besides, the growth inhibition call in the experiment with S. aureus RN4220 was “inactive”.
As to `CS(=O)(=O)N1C[C@H]2CN(Cc3ccncc3)C(=O)[C@@H]2C1`, in the experiment on HSkMC, the cytotoxicity call is “inactive”. Besides, the growth inhibition call in the experiment with S. aureus RN4220 is “inactive”.
On to `COCC(=O)Nc1ccc2c(c1)OC[C@@H](C)N(Cc1ccccc1F)C[C@@H](C)[C@H](OC)CN(C)C2=O`, for which, in the experiment with HSkMC, the cytotoxicity call is “inactive”. For the same compound, in the experiment with S. aureus RN4220, the growth inhibition call is “inactive”.
Take `C[C@H]1CN([C@@H](C)CO)C(=O)Cc2cc(NC(=O)C3CCCCC3)ccc2O[C@@H]1CN(C)Cc1ccc(-c2ccccc2)cc1`: the cytotoxicity call with HSkMC is “inactive”. Further, in the experiment with S. aureus RN4220, the growth inhibition call is “inactive”.
`N[C@@H](Cn1ccc(=O)n(Cc2ccccc2C(=O)O)c1=O)C(=O)O`: the cytotoxicity call in the experiment on HSkMC is “inactive”. Also, the growth inhibition call in the experiment on S. aureus RN4220 was “inactive”.
As to `C[C@H](CO)N1C[C@H](C)[C@@H](CN(C)Cc2ccncc2)OCCCC[C@H](C)Oc2ccc(NC(=O)Nc3ccc(C(F)(F)F)cc3)cc2C1=O`, the cytotoxicity call with HSkMC is “inactive”. Also, the growth inhibition call in the experiment on S. aureus RN4220 was “inactive”.
Consider `COc1ccc(CN(C)C[C@H]2Oc3ccc(NC(=O)CCCCCC(=O)Nc4ccccc4N)cc3CC(=O)N([C@@H](C)CO)C[C@@H]2C)cc1`, for which the cytotoxicity call in the experiment on HSkMC is “inactive”. Moreover, the growth inhibition call with S. aureus RN4220 is “inactive”.
As for `O=S(=O)(NCC[C@@H]1CC[C@H](NS(=O)(=O)c2ccccc2Cl)[C@H](CO)O1)c1ccc(F)cc1`, in the experiment on HSkMC, the cytotoxicity call was “inactive”. In the experiment on S. aureus RN4220, the growth inhibition call is “inactive”.
Turning to `CNCc1ccncc1`, the cytotoxicity call in the experiment on HSkMC is “inactive”. In addition, the growth inhibition call in the experiment on S. aureus RN4220 was “inactive”.
As for `COc1ccc(S(=O)(=O)N(C)C[C@H]2Oc3ccc(NC(=O)CCC(F)(F)F)cc3CC(=O)N([C@@H](C)CO)C[C@H]2C)cc1`, the cytotoxicity call in the experiment with HSkMC was “inactive”. Besides, the growth inhibition call in the experiment on S. aureus RN4220 is “inactive”.
With `CCc1nnc(SCC(=O)OC)[nH]1`, in the experiment with HSkMC, the cytotoxicity call is “inactive”. Also, in the experiment on S. aureus RN4220, the growth inhibition call was “inactive”.
As to `CC(C)C(N)C(=O)OCCOCn1cnc2c(=O)[nH]c(N)nc21.Cl` (stereo unspecified), the cytotoxicity call with HSkMC is “inactive”. Further, the growth inhibition call in the experiment on S. aureus RN4220 was “inactive”.
As for `O=C(C[C@H]1CC[C@H]2[C@@H](COC[C@@H](O)CN2C(=O)c2cccnc2)O1)NCC1CC1`, the cytotoxicity call in the experiment with HSkMC was “inactive”. Besides, the growth inhibition call in the experiment on S. aureus RN4220 was “inactive”.
For the compound `CCC1(O)C(=O)OCc2c1cc1n(c2=O)Cc2cc3cc(O)ccc3nc2-1` (stereo unspecified), in the experiment on HSkMC, the cytotoxicity call is “inactive”. Moreover, the growth inhibition call with S. aureus RN4220 is “inactive”.
Consider `C[C@H](CO)N1C[C@H](C)[C@H](CN(C)Cc2ccccc2)Oc2c(NC(=O)Nc3ccc(C(F)(F)F)cc3)cccc2C1=O`, for which the cytotoxicity call in the experiment with HSkMC is “inactive”. Also, the growth inhibition call in the experiment with S. aureus RN4220 is “inactive”.
Regarding `COCC(=O)Nc1ccc2c(c1)C(=O)N(C)[C@@H]1CC[C@H](CC(=O)NCc3ccccc3Cl)O[C@@H]1CO2`, in the experiment with HSkMC, the cytotoxicity call was “inactive”. In addition, in the experiment with S. aureus RN4220, the growth inhibition call was “inactive”.
With `CN(C)CC(=O)N1CC2(C1)[C@@H](c1ccccc1)[C@@H](CO)N2S(C)(=O)=O`, in the experiment on HSkMC, the cytotoxicity call was “inactive”. The growth inhibition call in the experiment on S. aureus RN4220 is “inactive”.
As to `COCc1cc(C)nc(N)c1C#N`, in the experiment with HSkMC, the cytotoxicity call was “inactive”. In the experiment on S. aureus RN4220, the growth inhibition call is “inactive”.
For the compound `C[C@@H]1CN([C@@H](C)CO)C(=O)Cc2cc(NC(=O)NC3CCCCC3)ccc2O[C@H]1CN(C)Cc1ccc(Cl)c(Cl)c1`, in the experiment on HSkMC (human skeletal muscle cells), the cytotoxicity call was “inactive”. In the experiment on S. aureus RN4220, the growth inhibition call is “inactive”.

These data come from the antibiotic and cytotoxicity screens of Wong et al. (2023).
